To fix the notation:
T1: RBFOX1 RRM (Homo sapiens, UniProt Q9NWB1 109-208)
T1 sequence: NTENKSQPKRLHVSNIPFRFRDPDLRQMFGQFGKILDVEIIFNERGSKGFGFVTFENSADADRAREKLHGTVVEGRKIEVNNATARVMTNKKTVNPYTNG

B1: ACGGAAG (DNA:RNA)
RNA: GGGAGACCGGAAUUCAGAUUGUCCACGGAAGUUAAAUCCCGUCGUAGCCACCA
DNA 1: CAATCTGAATTCCGGTCTCCC
DNA 2: TGGTGGCTACGACGGGATT
B2: CGCUCUG (DNA:RNA)
RNA: B1 RNA with A25C, C26G, G27C, G28U, A29C, A30U
DNA 1: CAATCTGAATTCCGGTCTCCC
DNA 2: TGGTGGCTACGACGGGATT
B3: GGCUACA (DNA:RNA)
RNA: B1 RNA with A25G, C26G, G27C, G28U, A30C, G31A
DNA 1: CAATCTGAATTCCGGTCTCCC
DNA 2: TGGTGGCTACGACGGGATT
B4: ACGUAUG (DNA:RNA)
RNA: B1 RNA with G28U, A30U
DNA 1: CAATCTGAATTCCGGTCTCCC
DNA 2: TGGTGGCTACGACGGGATT
B5: CGAGUGG (DNA:RNA)
RNA: B1 RNA with A25C, C26G, G27A, A29U, A30G
DNA 1: CAATCTGAATTCCGGTCTCCC
DNA 2: TGGTGGCTACGACGGGATT
B6: UGCGUGG (DNA:RNA)
RNA: B1 RNA with A25U, C26G, G27C, A29U, A30G
DNA 1: CAATCTGAATTCCGGTCTCCC
DNA 2: TGGTGGCTACGACGGGATT
B7: GCGGGGC (DNA:RNA)
RNA: B1 RNA with A25G, A29G, A30G, G31C
DNA 1: CAATCTGAATTCCGGTCTCCC
DNA 2: TGGTGGCTACGACGGGATT
B8: CGCGCUU (DNA:RNA)
RNA: B1 RNA with A25C, C26G, G27C, A29C, A30U, G31U
DNA 1: CAATCTGAATTCCGGTCTCCC
DNA 2: TGGTGGCTACGACGGGATT
B9: GGGGACG (DNA:RNA)
RNA: B1 RNA with A25G, C26G, A30C
DNA 1: CAATCTGAATTCCGGTCTCCC
DNA 2: TGGTGGCTACGACGGGATT

Here are results for nine molecules from article PMC9911399, “Two distinct binding modes provide the RNA-binding protein RbFox with extraordinary sequence specificity”.

Residue numbers refer to the chain shown, from its start. This is one part of the list.

The target in this assay is T1, RBFOX1 RRM. The assay can be described thus: EMSA; HiTS-Eq, 1 nM pool, 10 min; buffer printed only for the single-RNA assays: 10 mM Tris pH 7.5, 150 mM NaCl, 3.4 mM EDTA, 0.001% NP-40, 30 C. To be noted: tags: His6 N-terminal (pET28a); label: 5' 32P. In a few lines: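 Purified wild-type or mutant RbFox RRM at increasing concentrations was equilibrated with 1 nM of 5′-radiolabelled RNA carrying 7 randomized nucleotides for 10 min in 50 µL. Unbound RNA was separated by 8% native PAGE and sequenced. Relative association constants came from read-count changes of each RNA species compared with the control reaction, normalised to the cognate motif.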
(Mobility shift assays separate free from complexed probe on a gel.)
For the molecule B1, the binding signal was 0.0086 KA relative to UGCAUGU.

B2: the binding signal was 0.0172 KA relative to UGCAUGU.

With B3, the binding signal is 0.00197 KA relative to UGCAUGU.

Turning to B4, the binding signal is 0.0128 KA relative to UGCAUGU.

Consider B5, for which the binding signal is 0.0101 KA relative to UGCAUGU.

As to B6, the binding signal is 0.0211 KA relative to UGCAUGU.

Turning to B7, the binding signal was 0.0231 KA relative to UGCAUGU.

In the case of B8, the binding signal was 0.0107 KA relative to UGCAUGU.

For the molecule B9, the binding signal is 0.0277 KA relative to UGCAUGU.
